# Reference: ChEMBL document CHEMBL1201862, “PubChem BioAssay data set” (2004)
#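 Step 1: Grow cells in 96-well plates. Step 2: Expose to compound for 48 hours at 5 concentrations. Step 3: Interpolate endpoints linearly; if unreached, use highest concentration. GI50 marks 50% less growth.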 Activity calls are given as the source filed them. Rule as the data show it: active = GI50 up to about 1.1 µM and inactive = higher.
# Tested on: NCI-H322M
# Test: inhibition of tumour cell growth, NCI panel, 48 h
row,Structure (SMILES),GI50
1,OC1CCN2Cc3ccccc3N=C12 (stereo not given),inactive: > 100 µM
2,c1ccc2sc(SCN(C3CCCCC3)C3CCCCC3)nc2c1,inactive: > 100 µM
3,CCCc1cc(=O)oc2c3c(c4c(c12)OC(C)(C)C=C4)O[C@@H](C)[C@H](C)C3=O,inactive: 13.8 µM
4,O=C(O)CC(Cc1ccccc1)C(=O)O (stereo not given),inactive: > 100 µM
5,CN(O)C(=O)CCC(NC(=O)CCC(N)C(=O)O)C(=O)NCC(=O)O (stereo not given),inactive: > 100 µM
6,Cc1ccc(NC(=O)CC/C(CC(=O)C(C)(C)C)=N/Nc2nnc(C)n2N)cc1C,inactive: > 100 µM
7,CC1=NN(C(=O)CC(=O)Nc2ccc(C)cc2)C(=O)C1/N=N/c1ccc(C(=O)O)cc1 (stereo not given),inactive: > 100 µM
8,O=C(c1ccccc1)c1ccc2nc3n(c2c1)C(c1c(F)cccc1F)SC3 (stereo not given),inactive: 7.91 µM
9,Oc1c(Cl)c(Cl)c(O)c2c1CCCC2,inactive: 16.7 µM
10,OCC12C3C4C1C1C2C3C41CO (stereo not given),inactive: > 100 µM
11,C=CCC1(O)C(=O)OC2C(O)COC21O (stereo not given),inactive: > 100 µM
12,O=C(OCc1ccccc1)OOC(=O)OCc1ccccc1,inactive: > 100 µM
13,OCC1OC(n2cnc3c2N=CNC[C@H]3O)C(Cl)C1O (stereo not given in full),inactive: > 100 µM
14,O=C(O)C1CCCN1Cc1ccc2c(c1)OCO2 (stereo not given),inactive: > 100 µM
15,O=C1OC(c2ccccc2)=N/C1=C\c1ccc(F)cc1,inactive: > 100 µM
16,COc1cc([C@@H]2c3cc4c(cc3[C@@H](OC3OC5COC(C)OC5C(OC(=O)CN5CCN(C)CC5)C3OC(=O)CN3CCN(C)CC3)C3COC(=O)[C@@H]32)OCO4)cc(OC)c1OC(=O)CN1CCN(C)CC1 (stereo not given in full),inactive: > 100 µM
17,Nc1cc(N2CCCC2)nc(=O)n1-c1ccccc1,inactive: > 100 µM
18,O=C1C2C(C(=O)N1c1ccccc1)C1(Br)c3ccccc3C2(Br)C2C(=O)N(c3ccccc3)C(=O)C21 (stereo not given),inactive: > 62.2 µM
19,CC(C)=CCC[C@@H](C)C1=C(Nc2ccccc2)C(=O)C(C)=C(O)C1=O,inactive: 3.37 µM
20,c1ccc(/N=c2/[nH]c3ccccc3s/c2=N/c2ccccc2)cc1,inactive: > 100 µM
21,O=C1C2=C(C3=NCCc4c[nH]c1c43)C1(C=C(Br)C(O)C(Br)=C1)CCN2 (stereo not given),inactive: 2.1 µM
22,CN(C)C(=N)NC(N)=S,inactive: > 100 µM
23,CC(C)COC(=O)c1ccc(/N=C\c2ccc(/C=N/c3ccc(C(=O)OCC(C)C)cc3)cc2)cc1,inactive: > 100 µM
24,CCn1cc2c(=O)n3ncn(-c4ccc(Br)cc4)c3nc2n1,inactive: > 100 µM

row,Structure (SMILES),GI50
1,CCCCCCCCCCCCCCCC(=O)OCC1OC(n2cc(F)c(=O)[nH]c2=O)C(N)C(O)C1O (stereo not given),inactive: 21.6 µM
2,c1ccc(-c2nnc(CCCCCCCCc3nnc(-c4ccccc4)o3)o2)cc1,inactive: 72.1 µM
3,COc1cc(/C=C2\C(=O)N(C(=O)Cc3ccccc3)N=C2C)ccc1O,inactive: > 100 µM
4,C/C1=C\CC[C@@]2(C)O[C@@H]2C[C@@H](C2(C)CO2)CC/C(C)=C/CC1 (stereo not given in full),inactive: 19.9 µM
5,C=CCCCCOC1C=CC(O)C(CO)O1 (stereo not given),inactive: > 100 µM
6,C[C@@H]1OC(=O)C[C@H]2CC(=O)N(CCC3CN(S(=O)(=O)C(F)(F)F)c4ccc(Cc5ccc6c(c5)C(CCN5C[C@H]7[C@@H](CC(=O)O[C@H]7C)CC5=O)CN6S(=O)(=O)C(F)(F)F)cc43)C[C@@H]21 (stereo not given in full),inactive: > 100 µM
7,NC(Cc1ccc(N(CCCl)CCCl)cc1)C(=O)NC(CCC(=O)O)C(=O)O (stereo not given),inactive: > 100 µM
8,COc1ccccc1C1SCC(=O)N1c1ccc(-n2c(-c3ccccc3)nc3ccccc3c2=O)cc1 (stereo not given),inactive: 50.4 µM
9,CC1(C)C(CCO)CC1n1cc(I)c(=O)[nH]c1=O (stereo not given),inactive: > 100 µM
10,CN(C)CS/C(N)=N\C(O)C(Cl)(Cl)Cl (stereo not given),inactive: > 100 µM
11,C=C1C[C@@H](O)C[C@@]2(C)C[C@@H]3OC(=O)C(=C)[C@@H]3C[C@H]12,inactive: 20.5 µM
12,COc1cc(-c2ccccc2N)c2cccnc2c1OC,inactive: 7.28 µM
13,CC12CCC(/C(=N/c3cc(C(F)(F)F)cc(C(F)(F)F)c3)C1=O)C2(C)C (stereo not given),inactive: 55.3 µM
14,O=S(=O)(c1ccccc1)C1CN2OC1(S(=O)(=O)c1ccccc1)CC2c1ccc(Br)cc1 (stereo not given),inactive: > 100 µM
15,C[C@]12CCC(=O)C=C1CC[C@@H]1[C@@H]2CC[C@]2(C)C(=O)NC(=O)C[C@@H]12,inactive: > 100 µM
16,CN(C(=O)c1cc2c(s1)sc1c(=O)n(C)c3ccccc3c12)c1ccccc1,inactive: 14.9 µM
17,CC1(C)OC(=O)C(C)(C)OC1=O,inactive: > 100 µM
18,OC1CCSc2ccccc21 (stereo not given),inactive: > 100 µM
19,CCC(=O)/C(=C\I)c1ccccc1,inactive: 14.5 µM
20,CC(C)(C)OC(=O)C1=C(N)N(Cc2ccccc2)C2(C)C=CC(=O)C=C12 (stereo not given),inactive: 16.9 µM
21,O=C1CCCC/C1=C\c1ccc(Br)cc1,inactive: 20.3 µM
22,N#CC1=C(S)N(C2OC(CO)C(O)C(O)C2O)C(c2ccccc2)=CC1c1ccco1 (stereo not given),inactive: 34.1 µM
23,CC(C)(O)[C@H](CCO)O[Si](c1ccccc1)(c1ccccc1)C(C)(C)C,inactive: 16.3 µM
24,CC1C2C=C(O)C(=O)C(C2=O)C1c1ccccc1 (stereo not given),inactive: > 100 µM

row,Structure (SMILES),GI50
1,Cc1ccccc1-n1c(CCl)nc2ccc(Br)cc2c1=O,inactive: 17 µM
2,FC(F)(F)C1(C(F)(F)F)C2CCC3(CC(F)(F)C(F)(F)S3)C1C2 (stereo not given),inactive: > 100 µM
3,Cc1cc(=O)oc2cc(OCc3nc4ccccc4c(=O)n3-c3ccccc3)ccc12,inactive: > 100 µM
4,COC(=O)/C=C\C(C#N)(C#N)/N=C/c1ccc(Br)s1,inactive: 18.2 µM
5,COc1ccc2c(c1)C(=O)C1CCC(=O)N1C2c1ccc2c(c1)OCO2 (stereo not given),inactive: 19.1 µM
6,CC(C)(C)c1cc(/C=C/C(=O)CC(=O)/C=C/c2cc(C(C)(C)C)c(O)c(C(C)(C)C)c2)cc(C(C)(C)C)c1O,inactive: > 50 µM
7,COc1ccc(NC(=O)CC2S/C(=N\c3ccccc3C)NC2=O)c([N+](=O)[O-])c1 (stereo not given),inactive: > 100 µM
8,Cc1cccc(C)c1NC(=O)C(=O)CC(=O)/C=C/c1ccccc1,inactive: > 100 µM
9,CC(=O)[C@H]1[C@@H](OCc2ccccc2)O[N+]([O-])=C(C)[C@@H]1c1ccccc1,inactive: > 100 µM
10,O=C(CC(C(=O)c1ccco1)c1cccs1)c1cccs1 (stereo not given),inactive: > 100 µM
11,O=C1c2ccccc2C(=O)c2c(NCCCN3CCOCC3)ccc(NCCCN3CCOCC3)c21,inactive: 3.72 µM
12,O=S1(=O)OCCOS(=O)(=O)C1(Br)Cc1ccccc1,inactive: > 100 µM
13,CCOC(=O)Cc1nnc2c(-c3ccccc3)nc3ccccc3n12,inactive: 16.6 µM
14,C[N+]1=c2c3cccc4cccc(c(=O)n2CC1)c43,inactive: 11 µM
15,C#CCOCC12C=CC(O1)C1COC(=O)C12 (stereo not given),inactive: > 100 µM
16,NNc1nnc(-c2ccccc2)nc1Cc1ccccc1,inactive: 8.05 µM
17,CC(N)CC(=O)O (stereo not given),inactive: 1630 µM
18,CC[C@]12C=CCN3CC[C@@]4(c5cc(Br)c(OC)cc5N(C)[C@H]4[C@@](O)(C(=O)NN)[C@@H]1O)[C@@H]32,inactive: > 100 µM
19,CC1=CC(=O)N2C(OC[C@@H]2c2ccccc2)O1 (stereo not given in full),inactive: > 100 µM
20,CC(=O)CCCCn1c(=O)c2c(nc(Br)n2C)n(C)c1=O,inactive: > 100 µM
21,CN(C)NC(=O)/C(=C/c1ccc(Cl)cc1)NC(=O)c1ccccc1,inactive: > 100 µM
22,Cc1cc(C)nc(Nc2nc3cc([N+](=O)[O-])ccc3[nH]2)n1,inactive: > 100 µM
23,COC(=O)C(=O)C1(CCC(C)=O)c2ccccc2-c2c(C)ccc(C)c21 (stereo not given),inactive: 68.1 µM
24,O=S1(=O)c2ccccc2N=C(c2ccccc2Cl)CC1c1ccc(F)cc1 (stereo not given),inactive: 16.7 µM

row,Structure (SMILES),GI50
1,C#CCOC(=O)C(N)CS (stereo not given),inactive: > 100 µM
2,COc1ccc(/C=C/CO)cc1OC,inactive: > 100 µM
3,CCc1cccc(C)c1NC(=O)CCc1nnc(SC)o1,inactive: > 100 µM
4,O=C1C2=C(c3ccccc31)C(c1ccccc1)N1C(=O)CSC1=N2 (stereo not given),inactive: > 68.9 µM
5,Cc1ccc(S(=O)(=O)Nn2c(S)c(C#N)c(-c3ccc([N+](=O)[O-])cc3)c(C#N)c2=O)cc1,inactive: 56.5 µM
6,NC1=CN(CCCO)C2=N/C(=C\c3ccccc3)C(=O)N12,inactive: > 100 µM
7,O=C1CC2Sc3ccccc3N=C2N1c1ccc(Cl)cc1Cl (stereo not given),inactive: > 100 µM
8,CC1=C/C(=N\OCC(=O)O)CC(c2ccc(C(C)C)cc2)C1 (stereo not given),inactive: > 100 µM
9,O=C1Nc2ccccc2C12CCNC2Cc1ccccc1 (stereo not given),inactive: > 100 µM
10,CCN(CC)C(=O)N[C@@H](CC(C)C)C(=O)NC,inactive: > 100 µM
11,CC1CC=CC(O)C1 (stereo not given),inactive: > 100 µM
12,Cc1ccc(CC2(C(=O)O)Cc3ccc(C)cc3C2)cc1 (stereo not given),inactive: > 100 µM
13,COc1ccc(NC(=O)CC(=O)n2nc(C)c(/N=N/c3ccc(C)c(C)c3)c2C)cc1,inactive: 60.5 µM
14,O=C(O)CNCc1c2ccccc2nc2ccccc12,inactive: 69.7 µM
15,O=C1OCc2cccc3c2-c2c1cccc2C(=O)OC3,inactive: > 100 µM
16,Nc1cc(S(=O)(=O)O)cc2cc(S(=O)(=O)O)c(/N=N/c3ccc(-c4ccc(/N=N/c5c(S(=O)(=O)O)cc6cc(S(=O)(=O)O)cc(N)c6c5O)cc4)cc3)c(O)c12,inactive: > 100 µM
17,COc1ccc(C(C)NNC(=O)c2cc[n+]([BH2-]C#N)cc2)cc1OC (stereo not given),inactive: > 100 µM
18,CCOC(=O)Oc1cc2c(c(OC)c1OC)-c1ccc(SC)c(=O)cc1C(NC(=O)C(F)(F)F)CC2 (stereo not given),active: 0.1 µM
19,COc1cccc2c1C(=O)c1c(O)c3c(c(O)c1C2=O)C[C@@](O)(C(C)=O)CC3OC1CC(OC2CC(N)C(O)C(C)O2)C(O)C(C)O1 (stereo not given in full),inactive: 77.1 µM
20,Nc1ccc(-c2nc3cc(F)ccc3s2)cc1,inactive: 4.56 µM
21,Nc1ccn([C@H]2CO[C@@H](CO)O2)c(=O)n1,inactive: > 100 µM
22,Cc1cnc2[nH]c(-c3cccc(F)c3)cc(=O)c2c1,active: 0.0502 µM
23,Cc1ccc2c(O)cc(-c3ccc(Cl)cc3)nc2n1,inactive: 6.05 µM
